Reference: patent US20230242607A1 (EUTILEX, published 2023)

Experiments:
[1] = biological target: T1, IL2-RA (UniProt P01589 22-213, limits assumed); test: SPR, Biacore T200; IL-2-Fc on CM5 chip, receptor injected; 1:1 model
T1 construct: Bought recombinant protein (Sino); also called CD25; IL-2Rα
T1 sequence (looked up): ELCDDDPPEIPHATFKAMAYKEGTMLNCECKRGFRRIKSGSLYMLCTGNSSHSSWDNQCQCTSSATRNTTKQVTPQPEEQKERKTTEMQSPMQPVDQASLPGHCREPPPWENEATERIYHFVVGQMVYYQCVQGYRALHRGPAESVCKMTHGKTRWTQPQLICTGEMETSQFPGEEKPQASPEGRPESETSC
Method: (§1) The affinity of additional IL-2 variants to IL-2 receptors, IL2-RA and IL2-RB, was analyzed using surface plasmon resonance (SPR). The IL-2 variants were diluted to a concentration of 2 ug/mL then immobilized on CM5 chip (GE Healthcare, Cat#BR-1005-30). Biacore T200 (GE healthcare) was used to measure and analyze affinity of each IL-2 variant, where the results were analyzed with a 1:1 binding model by BIAevaluation software, as described in Example 4.

[2] = biological target: T2, IL2-RB (UniProt P14784 27-239, limits assumed); test: as above
T2 construct: Bought recombinant protein (Sino); also called CD122; IL-2Rβ
T2 sequence (looked up): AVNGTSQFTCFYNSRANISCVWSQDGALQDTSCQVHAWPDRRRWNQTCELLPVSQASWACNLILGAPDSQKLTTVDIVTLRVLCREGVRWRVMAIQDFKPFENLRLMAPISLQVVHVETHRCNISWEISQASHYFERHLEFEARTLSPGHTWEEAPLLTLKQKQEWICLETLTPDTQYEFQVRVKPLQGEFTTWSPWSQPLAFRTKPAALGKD
Method: as §1

B1: wild-type IL-2 Fc fusion protein (Fc fusion)
chain: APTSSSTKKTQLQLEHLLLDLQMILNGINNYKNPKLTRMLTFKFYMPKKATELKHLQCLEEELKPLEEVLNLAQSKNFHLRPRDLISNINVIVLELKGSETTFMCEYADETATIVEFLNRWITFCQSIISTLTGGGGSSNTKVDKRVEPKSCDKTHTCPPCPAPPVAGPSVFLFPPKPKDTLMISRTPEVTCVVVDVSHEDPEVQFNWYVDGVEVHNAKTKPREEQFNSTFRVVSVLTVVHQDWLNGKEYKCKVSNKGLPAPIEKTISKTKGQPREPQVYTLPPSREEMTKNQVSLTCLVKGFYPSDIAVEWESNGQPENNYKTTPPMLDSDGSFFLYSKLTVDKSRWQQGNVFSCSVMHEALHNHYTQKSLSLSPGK
notes: also called IL2 wt; IL2 WT
For B1, the Kd [1] was 0.912 nM, the koff [1] was 0.000258 s⁻¹ and the kon [1] was 283000 M⁻¹ s⁻¹. For the same binder, the Kd [2] was 62.8 nM, the koff [2] was 0.0265 s⁻¹ and the kon [2] was 421000 M⁻¹ s⁻¹.
